Our source for the Kd values is patent US20200199241A1 (Chugai, published 2020).

The chains are these.
B1: IgG1-F69 (antibody)
heavy: QVQLQESGPGLVKPSETLSLTCAVSGHSISHDHAWSWVRQPPGEGLEWIGFISYSGITNYNPSLQGRVTISRDNSKNTLYLQMNSLRAEDTAVYYCARSLARTTAMDYWGEGTLVTVSS[here human IgG1 constant region with M428L N434W (EU numbers) without letters]
light: DIQMTQSPSSLSASVGDRVTITCRASQDISSYLNWYQQKPGKAPKLLIYYTSRLHSGVPSRFSGSGSGTDFTFTISSLQPEDIATYYCQQGNTLPYTFGQGTKVEIKRTVAAPSVFIFPPSDEQLKSGTASVVCLLNNFYPREAKVQWKVDNALQSGNSQESVTEQDSKDSTYSLSSTLTLSKADYEKHKVYACEVTHQGLSSPVTKSFNRGEC
notes: EU numbering; copies: 2 + 2
B2: IgG1-F512 (antibody)
heavy: QVQLQESGPGLVKPSETLSLTCAVSGHSISHDHAWSWVRQPPGEGLEWIGFISYSGITNYNPSLQGRVTISRDNSKNTLYLQMNSLRAEDTAVYYCARSLARTTAMDYWGEGTLVTVSS[here human IgG1 constant region with P257T N434Y (EU numbers) without letters]
light: DIQMTQSPSSLSASVGDRVTITCRASQDISSYLNWYQQKPGKAPKLLIYYTSRLHSGVPSRFSGSGSGTDFTFTISSLQPEDIATYYCQQGNTLPYTFGQGTKVEIKRTVAAPSVFIFPPSDEQLKSGTASVVCLLNNFYPREAKVQWKVDNALQSGNSQESVTEQDSKDSTYSLSSTLTLSKADYEKHKVYACEVTHQGLSSPVTKSFNRGEC
notes: EU numbering; copies: 2 + 2
B3: IgG1-F70 (antibody)
heavy: QVQLQESGPGLVKPSETLSLTCAVSGHSISHDHAWSWVRQPPGEGLEWIGFISYSGITNYNPSLQGRVTISRDNSKNTLYLQMNSLRAEDTAVYYCARSLARTTAMDYWGEGTLVTVSS[here human IgG1 constant region with M428L N434Y (EU numbers) without letters]
light: DIQMTQSPSSLSASVGDRVTITCRASQDISSYLNWYQQKPGKAPKLLIYYTSRLHSGVPSRFSGSGSGTDFTFTISSLQPEDIATYYCQQGNTLPYTFGQGTKVEIKRTVAAPSVFIFPPSDEQLKSGTASVVCLLNNFYPREAKVQWKVDNALQSGNSQESVTEQDSKDSTYSLSSTLTLSKADYEKHKVYACEVTHQGLSSPVTKSFNRGEC
notes: EU numbering; copies: 2 + 2
B4: IgG1-F617 (antibody)
heavy: QVQLQESGPGLVKPSETLSLTCAVSGHSISHDHAWSWVRQPPGEGLEWIGFISYSGITNYNPSLQGRVTISRDNSKNTLYLQMNSLRAEDTAVYYCARSLARTTAMDYWGEGTLVTVSS[here human IgG1 constant region with S239K N434W (EU numbers) without letters]
light: DIQMTQSPSSLSASVGDRVTITCRASQDISSYLNWYQQKPGKAPKLLIYYTSRLHSGVPSRFSGSGSGTDFTFTISSLQPEDIATYYCQQGNTLPYTFGQGTKVEIKRTVAAPSVFIFPPSDEQLKSGTASVVCLLNNFYPREAKVQWKVDNALQSGNSQESVTEQDSKDSTYSLSSTLTLSKADYEKHKVYACEVTHQGLSSPVTKSFNRGEC
notes: EU numbering; copies: 2 + 2
B5: IgG1-F82 (antibody)
heavy: QVQLQESGPGLVKPSETLSLTCAVSGHSISHDHAWSWVRQPPGEGLEWIGFISYSGITNYNPSLQGRVTISRDNSKNTLYLQMNSLRAEDTAVYYCARSLARTTAMDYWGEGTLVTVSS[here human IgG1 constant region with T256Q N434W (EU numbers) without letters]
light: DIQMTQSPSSLSASVGDRVTITCRASQDISSYLNWYQQKPGKAPKLLIYYTSRLHSGVPSRFSGSGSGTDFTFTISSLQPEDIATYYCQQGNTLPYTFGQGTKVEIKRTVAAPSVFIFPPSDEQLKSGTASVVCLLNNFYPREAKVQWKVDNALQSGNSQESVTEQDSKDSTYSLSSTLTLSKADYEKHKVYACEVTHQGLSSPVTKSFNRGEC
notes: EU numbering; copies: 2 + 2
B6: IgG1-F511 (antibody)
heavy: QVQLQESGPGLVKPSETLSLTCAVSGHSISHDHAWSWVRQPPGEGLEWIGFISYSGITNYNPSLQGRVTISRDNSKNTLYLQMNSLRAEDTAVYYCARSLARTTAMDYWGEGTLVTVSS[here human IgG1 constant region with P257V N434Y (EU numbers) without letters]
light: DIQMTQSPSSLSASVGDRVTITCRASQDISSYLNWYQQKPGKAPKLLIYYTSRLHSGVPSRFSGSGSGTDFTFTISSLQPEDIATYYCQQGNTLPYTFGQGTKVEIKRTVAAPSVFIFPPSDEQLKSGTASVVCLLNNFYPREAKVQWKVDNALQSGNSQESVTEQDSKDSTYSLSSTLTLSKADYEKHKVYACEVTHQGLSSPVTKSFNRGEC
notes: EU numbering; copies: 2 + 2
B7: IgG1-F115 (antibody)
heavy: QVQLQESGPGLVKPSETLSLTCAVSGHSISHDHAWSWVRQPPGEGLEWIGFISYSGITNYNPSLQGRVTISRDNSKNTLYLQMNSLRAEDTAVYYCARSLARTTAMDYWGEGTLVTVSS[here human IgG1 constant region with T307A N434A (EU numbers) without letters]
light: DIQMTQSPSSLSASVGDRVTITCRASQDISSYLNWYQQKPGKAPKLLIYYTSRLHSGVPSRFSGSGSGTDFTFTISSLQPEDIATYYCQQGNTLPYTFGQGTKVEIKRTVAAPSVFIFPPSDEQLKSGTASVVCLLNNFYPREAKVQWKVDNALQSGNSQESVTEQDSKDSTYSLSSTLTLSKADYEKHKVYACEVTHQGLSSPVTKSFNRGEC
notes: EU numbering; copies: 2 + 2
B8: IgG1-F116 (antibody)
heavy: QVQLQESGPGLVKPSETLSLTCAVSGHSISHDHAWSWVRQPPGEGLEWIGFISYSGITNYNPSLQGRVTISRDNSKNTLYLQMNSLRAEDTAVYYCARSLARTTAMDYWGEGTLVTVSS[here human IgG1 constant region with E380A N434A (EU numbers) without letters]
light: DIQMTQSPSSLSASVGDRVTITCRASQDISSYLNWYQQKPGKAPKLLIYYTSRLHSGVPSRFSGSGSGTDFTFTISSLQPEDIATYYCQQGNTLPYTFGQGTKVEIKRTVAAPSVFIFPPSDEQLKSGTASVVCLLNNFYPREAKVQWKVDNALQSGNSQESVTEQDSKDSTYSLSSTLTLSKADYEKHKVYACEVTHQGLSSPVTKSFNRGEC
notes: EU numbering; copies: 2 + 2
B9: IgG1-F83 (antibody)
heavy: QVQLQESGPGLVKPSETLSLTCAVSGHSISHDHAWSWVRQPPGEGLEWIGFISYSGITNYNPSLQGRVTISRDNSKNTLYLQMNSLRAEDTAVYYCARSLARTTAMDYWGEGTLVTVSS[here human IgG1 constant region with T256Q N434Y (EU numbers) without letters]
light: DIQMTQSPSSLSASVGDRVTITCRASQDISSYLNWYQQKPGKAPKLLIYYTSRLHSGVPSRFSGSGSGTDFTFTISSLQPEDIATYYCQQGNTLPYTFGQGTKVEIKRTVAAPSVFIFPPSDEQLKSGTASVVCLLNNFYPREAKVQWKVDNALQSGNSQESVTEQDSKDSTYSLSSTLTLSKADYEKHKVYACEVTHQGLSSPVTKSFNRGEC
notes: EU numbering; copies: 2 + 2
B10: IgG1-F188 (antibody)
heavy: QVQLQESGPGLVKPSETLSLTCAVSGHSISHDHAWSWVRQPPGEGLEWIGFISYSGITNYNPSLQGRVTISRDNSKNTLYLQMNSLRAEDTAVYYCARSLARTTAMDYWGEGTLVTVSS[here human IgG1 constant region with P257I Q311I (EU numbers) without letters]
light: DIQMTQSPSSLSASVGDRVTITCRASQDISSYLNWYQQKPGKAPKLLIYYTSRLHSGVPSRFSGSGSGTDFTFTISSLQPEDIATYYCQQGNTLPYTFGQGTKVEIKRTVAAPSVFIFPPSDEQLKSGTASVVCLLNNFYPREAKVQWKVDNALQSGNSQESVTEQDSKDSTYSLSSTLTLSKADYEKHKVYACEVTHQGLSSPVTKSFNRGEC
notes: EU numbering; copies: 2 + 2
B11: IgG1-F1174 (antibody)
heavy: QVQLQESGPGLVKPSETLSLTCAVSGHSISHDHAWSWVRQPPGEGLEWIGFISYSGITNYNPSLQGRVTISRDNSKNTLYLQMNSLRAEDTAVYYCARSLARTTAMDYWGEGTLVTVSS[here human IgG1 constant region with P257I N434H (EU numbers) without letters]
light: DIQMTQSPSSLSASVGDRVTITCRASQDISSYLNWYQQKPGKAPKLLIYYTSRLHSGVPSRFSGSGSGTDFTFTISSLQPEDIATYYCQQGNTLPYTFGQGTKVEIKRTVAAPSVFIFPPSDEQLKSGTASVVCLLNNFYPREAKVQWKVDNALQSGNSQESVTEQDSKDSTYSLSSTLTLSKADYEKHKVYACEVTHQGLSSPVTKSFNRGEC
notes: EU numbering; copies: 2 + 2
B12: IgG1-F1159 (antibody)
heavy: QVQLQESGPGLVKPSETLSLTCAVSGHSISHDHAWSWVRQPPGEGLEWIGFISYSGITNYNPSLQGRVTISRDNSKNTLYLQMNSLRAEDTAVYYCARSLARTTAMDYWGEGTLVTVSS[here human IgG1 constant region with S424N N434W (EU numbers) without letters]
light: DIQMTQSPSSLSASVGDRVTITCRASQDISSYLNWYQQKPGKAPKLLIYYTSRLHSGVPSRFSGSGSGTDFTFTISSLQPEDIATYYCQQGNTLPYTFGQGTKVEIKRTVAAPSVFIFPPSDEQLKSGTASVVCLLNNFYPREAKVQWKVDNALQSGNSQESVTEQDSKDSTYSLSSTLTLSKADYEKHKVYACEVTHQGLSSPVTKSFNRGEC
notes: EU numbering; copies: 2 + 2
B13: IgG1-F761 (antibody)
heavy: QVQLQESGPGLVKPSETLSLTCAVSGHSISHDHAWSWVRQPPGEGLEWIGFISYSGITNYNPSLQGRVTISRDNSKNTLYLQMNSLRAEDTAVYYCARSLARTTAMDYWGEGTLVTVSS[here human IgG1 constant region with P238D N434Y (EU numbers) without letters]
light: DIQMTQSPSSLSASVGDRVTITCRASQDISSYLNWYQQKPGKAPKLLIYYTSRLHSGVPSRFSGSGSGTDFTFTISSLQPEDIATYYCQQGNTLPYTFGQGTKVEIKRTVAAPSVFIFPPSDEQLKSGTASVVCLLNNFYPREAKVQWKVDNALQSGNSQESVTEQDSKDSTYSLSSTLTLSKADYEKHKVYACEVTHQGLSSPVTKSFNRGEC
notes: EU numbering; copies: 2 + 2

As a reminder, the Kd is the concentration at which binding is half-saturated. A higher Kd goes with a looser complex.

One experiment addresses T1, human FcRn (soluble human FcRn complexed with β2-microglobulin) (human, UniProt P61769 partial chain, limits assumed).
T1 construct: also called hFcRn
Description: SPR, pH 7.0.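 Further: antibodies captured on a Protein L sensor chip with human FcRn injected as analyte, KD calculated from fitted association and dissociation rate constants.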 A general note: SPR reads the build-up and loss of mass on a sensor chip optically.
In the case of B1, binding was put at a Kd of 0.51 µM. Same read-out and setting: then B2, with 0.58 µM; and B3, with 1.5 µM; and B4, with 0.74 µM.

The molecule B5 showed a Kd of 1.1 µM. Same read-out and setting: under B6 stands 0.42 µM; under B7, 6.6 µM; under B8, 8.7 µM. B9 showed a Kd of 2.6 µM.

Molecule B10 displayed a Kd of 3 µM.

In another experiment the target is T2, soluble human FcRn complexed with β2-microglobulin (human, UniProt P61769 partial chain, limits assumed).
T2 construct: also called hFcRn
Description: Biacore SPR, pH 7.0.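 Further: test antibodies captured on a Protein L chip with human FcRn flowed over as analyte, KD obtained as the ratio of dissociation to association rate constants.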
B11 returned a Kd of 0.49 µM. On the same count and under the same terms, then B12, with 0.479 µM. On the same count and under the same terms, then B13, with 1.1 µM.
